The values that follow come from the supplement of paper PMC9588766.

Counter-ions that a name gives are not always drawn. ± gives the standard deviation of the averaged measurements. Over roughly 2,000 compounds, “cell viability relative to DMSO control (compound alone)” has its median near 0.98; the lowest 2% begin near 0.23. This is one part of the list.

This experiment relates to PDC-DUC18828. Description: cell viability relative to DMSO control (compound alone) (fraction); PDC-DUC18828 is a patient-derived cholangiocarcinoma cell line; higher = less growth inhibition. The settings on record: 1 µM; 72 h. The procedure: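 Selleck Bioactive library screen in the patient-derived FGFR2-G3BP2 fusion-positive ICC cell line PDC-DUC18828 (500 cells/well). Each compound was tested at 1 uM alone, in triplicate, for 72 h. Viability was read by CellTiter-Glo and normalised to plate DMSO controls.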
The compound `Cc1ccc([N+](=O)[O-])cc1S(=O)(=O)N(C)/N=C/c1cnc2ccc(Br)cn12` came in with a cell viability of 0.958 ± 0.017. In turn, `CN1CCN(c2c(F)cc3c(=O)c(C(=O)O)cn4c3c2OCN4C)CC1` [Marbofloxacin] gave a cell viability of 1.12 ± 0.036. `OC(CCCN1CCCCC1)(c1ccccc1)c1ccccc1` [Diphenidol HCl] came in with a cell viability of 1.04 ± 0.038.

`CCN(CC)CCOC(=O)C(c1ccccc1)c1ccccc1` [Adiphenine HCl] gave a cell viability of 1.1 ± 0.043. `CCCCCCCCCCCCc1ccc(S(=O)(=O)Nc2nncs2)cc1`: the cell viability worked out at 0.987 ± 0.067. Take `CCOC(=O)c1ccc(N)cc1` [Benzocaine]: the cell viability came out at 1 ± 0.027. Compound `C[C@H]1[C@H](C)CC[C@]2(C(=O)O)CC[C@]3(C)C(=CC[C@@H]4[C@@]5(C)C[C@@H](O)[C@H](O)[C@@](C)(CO)[C@@H]5CC[C@]43C)[C@H]12` [Asiatic Acid] displayed a cell viability of 1.03 ± 0.055.

As to `C=CC(C)(C)c1cc(/C=C/C(=O)c2ccc(O)cc2)c(OC)cc1O` [Licochalcone A], the cell viability worked out at 0.982 ± 0.039.

Consider `Cc1ncc(Cl)cc1NCc1ccc(C(=O)N[C@@H](CC2CCCC2)C(=O)NC2CC2)s1`, for which the cell viability stood at 0.9531 ± 0.0022. Take `O=C(CCCCCCC(=O)Nc1ccc([C@H]2O[C@@H](CSc3nc(-c4ccccc4)c(-c4ccccc4)o3)C[C@@H](c3ccc(CO)cc3)O2)cc1)NO` [Tubacin]: the cell viability amounted to 1.04 ± 0.028. As to `COc1cc(C(C)=O)ccc1O` [Apocynin], the cell viability is 1.01 ± 0.042. `Nc1cc(F)ccc1NC(=O)/C=C/c1cnn(C/C=C/c2ccccc2)c1` gave a cell viability of 0.956 ± 0.02.

The compound `CN(Cc1cnc2nc(N)nc(N)c2n1)c1ccc(C(=O)N[C@@H](CCC(=O)O)C(=O)O)cc1` [Methotrexate] had a cell viability of 0.85 ± 0.032. Take `CCOc1ccc2nc3cc(N)ccc3c(N)c2c1` [Ethacridine lactate monohydrate]: the cell viability was determined as 0.956 ± 0.062.

Consider `O=C1NC(=O)/C(=C/c2ccc3c(c2)OC(F)(F)O3)S1`, for which the cell viability came to 1.11 ± 0.051. On to `O=c1[nH]cnc2c1ncn2[C@@H]1O[C@H](CO)[C@@H](O)[C@H]1O` [Inosine], for which the cell viability is 0.935 ± 0.029.

Regarding `CCOc1ccccc1OC(c1ccccc1)C1CNCCO1` (stereo not given) [Reboxetine mesylate], the cell viability worked out at 1.01 ± 0.059. Compound `COc1cc([C@@H]2c3cc4c(cc3[C@@H](O[C@@H]3O[C@@H]5CO[C@@H](c6cccs6)O[C@H]5[C@H](O)[C@H]3O)[C@H]3COC(=O)[C@H]23)OCO4)cc(OC)c1O` [Teniposide] registered a cell viability of 0.189 ± 0.021. Under `Nc1nc(=S)c2ncn([C@H]3C[C@H](O)[C@@H](CO)O3)c2[nH]1` stands 0.904 ± 0.054; under `O=c1ccc2ccccc2o1` [Coumarin], 1.13 ± 0.069. For the compound `Cc1nc(-c2cccnc2)sc1C(=O)Nc1ccccc1-c1cn2c(CN3CCOCC3)csc2n1`, the cell viability was 0.96 ± 0.042.

As for `CN(C)CCCN1c2ccccc2Sc2ccc(Cl)cc21` [Chlorpromazine HCl], the cell viability was 0.949 ± 0.032. Under `C[C@H](Nc1ncnc2[nH]cnc12)c1cc2ccc(F)cc2nc1-c1ccccn1` stands 0.932 ± 0.028. The compound `Nc1ccc(C(=O)Nc2cccc(-c3nc(N4CCOCC4)c4oc5ncccc5c4n3)c2)cn1` came in with a cell viability of 0.729 ± 0.031. To `O=C(O)[C@H]1O[C@@H](Oc2cc3oc(-c4ccccc4)cc(=O)c3c(O)c2O)[C@H](O)[C@@H](O)[C@@H]1O` [Baicalin] belongs 1.06 ± 0.031; to `Cn1cc(-c2ccncc2)c(-c2ccc(OCc3ccc4ccccc4n3)cc2)n1`, 0.958 ± 0.049. As for `C=CC(=O)Nc1ccc(CN2C(=O)N(c3cc(OC)cc(OC)c3)Cc3cnc(Nc4ccc(N5CCN(C)CC5)cc4)nc32)cc1`, the cell viability worked out at 0.798 ± 0.057. In the case of `Cc1cc(C)c(S(=O)(=O)n2cc(C)cc2C)c(C)c1`, the cell viability was determined as 0.965 ± 0.088. In turn, `Cc1[nH]c2ccccc2c1CCNCc1ccc(/C=C/C(=O)NO)cc1` [Panobinostat (LBH589)] had a cell viability of 0.113 ± 0.0019. Under `c1cncc(CN2CCC(n3ncc4c(N5CCOCC5)nc(-c5ccc6[nH]ccc6c5)nc43)CC2)c1` stands 0.654 ± 0.039. Under `COC1CCN(C(=O)c2cc(Cc3n[nH]c(=O)c4ccccc34)ccc2F)CC1` stands 0.965 ± 0.031; under `CCCCN1CCCCC1C(=O)Nc1c(C)cccc1C` (stereo not given) [Bupivacaine HCl], 0.924 ± 0.054. Consider `CCOC(=O)c1[nH]c2cc(Cl)ccc2c1C(C(=O)NC(C)(C)C)N(C=O)Cc1ccc(Cl)cc1` (stereo not given), for which the cell viability worked out at 1.03 ± 0.054. For `Cc1ccc2c(=O)c3cccc(CC(=O)O)c3oc2c1C` [DMXAA (Vadimezan)], the cell viability worked out at 1.02 ± 0.051. Compound `C=C1/C(=C\C=C2/CCC[C@]3(C)[C@@H]([C@H](C)/C=C/[C@H](C)C(C)C)CC[C@@H]23)C[C@@H](O)C[C@@H]1O` [Doxercalciferol] came in with a cell viability of 0.996 ± 0.075. To `C[C@H]1O[C@@H](Oc2c(-c3cc(O)c(O)c(O)c3)oc3cc(O)cc(O)c3c2=O)[C@@H](O)[C@@H](O)[C@@H]1O` [Myricitrin] belongs 1 ± 0.015; to `Cc1nc(-c2ccc(OCC(C)C)c(C#N)c2)sc1C(=O)O` [Febuxostat], 1.12 ± 0.062. In turn, `Oc1cc2c(cc1O)[C@@H]1c3ccc(O)c(O)c3OC[C@]1(O)C2` [Hematoxylin] gave a cell viability of 0.985 ± 0.044. For `CC(C(=O)O)c1ccc2c(c1)CC(=O)c1ccccc1S2` (stereo not given) [Zaltoprofen], the cell viability stood at 0.876 ± 0.035.

With `COc1ccc(CC2c3cc(OC)c(OC)cc3CC[N+]2(C)CCC(=O)OCCCCCOC(=O)CC[N+]2(C)CCc3cc(OC)c(OC)cc3C2Cc2ccc(OC)c(OC)c2)cc1OC` (stereo not given) [Atracurium Besylate], the cell viability was found to be 1.02 ± 0.035. On to `CC(=O)[C@H]1CC[C@H]2[C@@H]3CC=C4C[C@@H](O)CC[C@]4(C)[C@H]3CC[C@]12C` [Pregnenolone], for which the cell viability amounted to 0.965 ± 0.03. As to `CCOC(=O)c1c(CSc2ccccc2)n(C)c2cc(Br)c(O)c(CN(C)C)c12` [Arbidol HCl], the cell viability was 0.995 ± 0.01. For `CCN1CCN(Cc2ccc(-c3cc4c(N[C@H](C)c5ccccc5)ncnc4[nH]3)cc2)CC1`, the cell viability turned out to be 0.976 ± 0.063. Regarding `Cc1nc(Nc2ncc(C(=O)Nc3c(C)cccc3Cl)s2)cc(N2CCN(CCO)CC2)n1` [Dasatinib], the cell viability turned out to be 0.43 ± 0.036. The compound `Cc1cc(Nc2nc(N[C@@H](C)c3ccc(F)cc3)c(C#N)cc2F)n[nH]1` gave a cell viability of 0.37 ± 0.04. Compound `CCC(=O)Nc1cccc(Oc2nc(Nc3ccc(N4CCN(C)CC4)cc3OC)ncc2Cl)c1` gave a cell viability of 1.05 ± 0.048. Under `N#Cc1c(NC(=O)c2cccc3ccccc23)sc2c1CCCC2` [JNK Inhibitor IX] stands 0.364 ± 0.043.

Turning to `C=CC(=O)Nc1cccc(Nc2nc(Nc3ccc(OCCOC)cc3)ncc2F)c1`, the cell viability amounted to 0.708 ± 0.028. Compound `COC(=O)Nc1nc2cc([S+]([O-])c3ccccc3)ccc2[nH]1` (stereo not given) [Oxfendazole] yielded a cell viability of 0.985 ± 0.055. Compound `CCc1c(Cl)c(O)c(Cl)c(O)c1C(=O)O[C@H]1[C@H](O)[C@H](OC)[C@H](OC/C2=C\C=C\C[C@H](O)/C(C)=C/[C@H](CC)[C@@H](O[C@@H]3OC(C)(C)[C@@H](OC(=O)C(C)C)[C@H](O)[C@@H]3O)/C(C)=C/C(C)=C/C[C@@H]([C@@H](C)O)OC2=O)O[C@@H]1C` [Fidaxomicin] returned a cell viability of 0.908 ± 0.069. Under `Nc1ccn([C@@H]2CS[C@H](CO)O2)c(=O)n1` [Lamivudine] stands 0.948 ± 0.026; under `O=C1NCCCc2c1oc1ccc(O)cc21`, 0.983 ± 0.031.

As to `COc1ccccc1OCC(O)COC(N)=O` (stereo not given) [Methocarbamol], the cell viability amounted to 1.05 ± 0.026. The compound `O=C(Nc1ccccc1)Nc1ccc(-c2ccc(C(=O)[C@@H]3CCC[C@H]3C(=O)O)cc2)cc1` had a cell viability of 1.03 ± 0.036. `CN(C)C/C=C/C(=O)Nc1cc2c(Nc3ccc(F)c(Cl)c3)ncnc2cc1O[C@H]1CCOC1` [Afatinib (BIBW2992) Dimaleate] yielded a cell viability of 0.859 ± 0.047. For the compound `CN(C)C/C=C/C(=O)Nc1cc2c(Nc3ccc(F)c(Cl)c3)ncnc2cc1O[C@H]1CCOC1` [Afatinib (BIBW2992)], the cell viability stood at 0.868 ± 0.049. To `O=C1NC(=O)C(c2ccccc2)(c2ccccc2)N1` [Phenytoin] belongs 0.923 ± 0.035; to `CC(C)(O)c1ccccc1CC[C@@H](SCC1(CC(=O)O)CC1)c1cccc(/C=C/c2ccc3ccc(Cl)cc3n2)c1` [Montelukast Sodium], 1.02 ± 0.036; to `COc1ccc(S(=O)(=O)N(CCO)c2ccccc2CN(C)C/C=C/c2ccc(Cl)cc2)cc1` [KN-93 Phosphate], 1.1 ± 0.046. The compound `O=C(Nc1ccccc1Br)N[C@@H]1CCN(c2ccc(C(F)(F)F)cn2)C1` displayed a cell viability of 1.12 ± 0.029. In turn, `O=C(NOCC(O)CO)c1cc(Br)c(F)c(F)c1Nc1ccc(I)cc1F` (stereo not given) registered a cell viability of 0.962 ± 0.017. Under `CN(C)CC(c1ccc(O)cc1)C1(O)CCCCC1` (stereo not given) [Desvenlafaxine Succinate] stands 0.912 ± 0.028; under `CN(C)CC(c1ccc(O)cc1)C1(O)CCCCC1` (stereo not given) [Desvenlafaxine], 0.998 ± 0.074. In turn, `C#CCC(Cc1cnc2nc(N)nc(N)c2n1)c1ccc(C(=O)N[C@@H](CCC(=O)O)C(=O)O)cc1` (stereo not given in full) [Pralatrexate] yielded a cell viability of 0.949 ± 0.034.

`O=C(C[S+]([O-])Cc1ccco1)NC/C=C\COc1cc(CN2CCCCC2)ccn1` (stereo not given) [Lafutidine] displayed a cell viability of 1.01 ± 0.028. Under `CCN(CC)CCCC(C)Nc1nc(C)cc(Nc2ccc3nc(C)cc(N)c3c2)n1` (stereo not given) stands 1 ± 0.026. Under `O=C(c1ccccc1)c1ccc2n1CCC2C(=O)O` (stereo not given) [Ketorolac] stands 1.02 ± 0.021; under `COc1c(N2CCNC(C)C2)c(F)cc2c(=O)c(C(=O)O)cn(C3CC3)c12` (stereo not given) [Gatifloxacin], 0.9603 ± 0.0022; under `CN(C)Cc1ccc(S(=O)(=O)n2ccc(/C=C/C(=O)NO)c2)cc1` [Resminostat], 1.05 ± 0.058.

For the compound `Nc1ncnc2n[nH]c(Nc3ccc(F)cc3)c12`, the cell viability was determined as 0.956 ± 0.014. As for `CC[C@H](C)C[C@H](C)CCCCCCCCC(=O)N[C@H]1C[C@@H](O)[C@@H](NCCN)NC(=O)[C@@H]2[C@@H](O)CCN2C(=O)[C@H]([C@H](O)CCN)NC(=O)[C@H]([C@H](O)[C@@H](O)c2ccc(O)cc2)NC(=O)[C@@H]2C[C@@H](O)CN2C(=O)[C@H]([C@@H](C)O)NC1=O` [Caspofungin Acetate], the cell viability was 0.883 ± 0.03. The compound `CCn1cc(NC(=S)Nc2cc(Cl)ccc2OC)c(C(N)=O)n1` displayed a cell viability of 1.03 ± 0.029. Compound `c1ccc(CN(CC2=NCCN2)c2ccccc2)cc1` [Antazoline HCl] had a cell viability of 1.03 ± 0.068. Take `CN(C)CC/C=C1/c2ccccc2COc2ccc(CC(=O)O)cc21` [Olopatadine HCl]: the cell viability came to 1.02 ± 0.058.

`CCCCCCCCCCCC[N+](C)(C)CCOc1ccccc1` [Domiphen Bromide] yielded a cell viability of 1.01 ± 0.039.
